This is one part of the list. At the low end of the ranking the order means little. Measured with an extract: partners may take part in the binding.

This assay addresses T1, HNF4alpha8 (COS-7 nuclear extract) (UniProt P41235-5).
T1 sequence: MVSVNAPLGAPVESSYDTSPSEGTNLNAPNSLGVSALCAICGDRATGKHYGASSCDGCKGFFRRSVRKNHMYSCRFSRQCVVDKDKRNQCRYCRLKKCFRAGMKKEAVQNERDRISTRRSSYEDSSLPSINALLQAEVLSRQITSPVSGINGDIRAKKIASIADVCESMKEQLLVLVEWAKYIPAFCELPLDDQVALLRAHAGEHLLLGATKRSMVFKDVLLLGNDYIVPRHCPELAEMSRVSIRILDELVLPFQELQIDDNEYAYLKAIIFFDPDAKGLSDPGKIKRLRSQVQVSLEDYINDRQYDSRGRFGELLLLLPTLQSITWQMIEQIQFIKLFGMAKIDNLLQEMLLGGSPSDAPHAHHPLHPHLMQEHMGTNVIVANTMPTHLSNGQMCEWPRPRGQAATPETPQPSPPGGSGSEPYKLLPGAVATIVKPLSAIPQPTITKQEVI
Kind of assay: protein-binding microarray. To be noted: COS-7 nuclear extract on double-stranded Agilent 4x180k PBM; binding buffer, salt, pH and temperature not given; high values mean tight binding; double strand, one strand shown; sequences stand for … in …GCCTAGGGAGATTAGAGTATCGGTCGA
For CAAACACACAATATTGACATTCCAGCCTCC, the binding signal (log2 normalized intensity) was -1.3. For TGCCCTCTTGTCCTTCCCCTTTTGTGTTTG the value was 2.97; for CCTCTAGTGGCCCAGTGTCTCTGGGCGCTG, -1.42. Turning to AGAAACCTCAAAGGTTAGGGGGATTCTGGC, the binding signal (log2 normalized intensity) was -1.05.

Take GGCTAAGGTCACCATGACCATAAACCACAA: the binding signal (log2 normalized intensity) is -1.35.

As to GGTGAACTCAGTCCTTTCAGGACACCTTCA, the binding signal (log2 normalized intensity) was -1.05.

For the sequence TATCTGTTAGGGCCATTTGGTCTGTAGTGT, the binding signal (log2 normalized intensity) is 2.06. The same measure for CAGAGATACTATTGATAACATCTAACAGCT: -1.48. For GGATGCCCTTTGACCTCTGCTTCCTGCTAC the value was 6.5; for TGGGCTTGCCTAAGACATGCTCGCAGCTGC, -1.31. The same measure for GCTTCTCCTGGCTTTAGATATCAGAAATGC: 0.508. For GTACACAAAGGTATCAGGGCTCAGGAATGT, the binding signal (log2 normalized intensity) is -1.18. The same measure for GTAACCACAGTACTGTCTTTTTGCCACTAG: -1.46; for AGGAGGAGGCCTAGGCAGTCCACAGACAAA: -1.33; for TAGAATCTTAGGAAAGCACAGCTGATTGCT: -1.34. The same measure for CCCTGCCACTCTTTTTTAGACTTTGACCTC: 10.2. For GATGGTGAGTTCTGTCCTTTGTCCCACATC the value was 3.05; for TGACTAGAGAGCAGGAGCCACCTGTCACTC, -1.34; for CTCTCAACTCAGTGAGGGCTATTGACAAAG, -1.04. Regarding TCAATTTACCTCTGCTCCCCCTGCCCTTCG, the binding signal (log2 normalized intensity) is 4.07.

With CTCAAGAAAGAGGTGGTTCTTTCTGAGTTG, the binding signal (log2 normalized intensity) amounted to 0.828. As for ATGGGAAGCCTCAGGAGTTGGAGGAACAGG, the binding signal (log2 normalized intensity) was -1.41.

In the case of GGGCAGTGTTTGCCCAGCTTGAATCACTCA, the binding signal (log2 normalized intensity) is -1.38. Turning to GCCCCTGGGTCGTTGGTGCTCCCCCACCCT, the binding signal (log2 normalized intensity) came to 4.41. The same measure for CCCATTCCTTCTCACCGGGTGGAGCCTCAC: 0.614; for GTCAAATTGGTGCTTTCATCCCCTGCATCC: 1.71; for ACTGAGCTTTAGATAGCTGTTAAATGGAGT: 0.221. The same measure for AAATAACGAAGGCATTCTTAACAAAACCTG: -1.22; for TCACTGTAACCTTTGCCCCCCAAGTTGAAG: 7.68; for GCCTTATCACCATTCAGATAAATGGTGTAG: -1.39. The same measure for TAAATGCCTCCCCCTCTTTATCTCCTGGAA: 2.84; for CTGAGTCTGATAAGGAAGATAATGGGTCCG: 1.38; for CAGAGGTTTCGCAAGGACGTGACCTTTATG: 4.94. Take TAACGCCCGCCTAACCTTGAGGAGCCCTAT: the binding signal (log2 normalized intensity) is -1.38. The same measure for TTTGTCCCCCACCTGTGAAGATAAGCTGTC: 3.17. For GAAAGTGAGGCCTGGCCGAGGTTGCCCAGC the value was -0.923; for CACACTGTACCCGTCCACCTTTGGATCCAG, 3; for CTATTCTCAGTGATATAAAACCTTTTTCTG, 1.37. For TCCACTGAAAATGCCAAGTTTCAGGCTATG the value was -1.36; for TGACCTTTAGCCTGGCCATTTCTCAGGTTG, 4.5. For GCATCCTTCTCCTCCCCTCCCCCCAGTTCC, the binding signal (log2 normalized intensity) came to 5.79.

In the case of AAATGAAAACACAGCTCACCACCTAGTAAA, the binding signal (log2 normalized intensity) was -1.23. For GCCAGGCAGGAAGGAGCCTGCTTTGCTGAG the value was -1.12; for GAACATGGACTTTGAACCTCTCTTCTTTTT, 7.93; for TCTCTGCCCTCTTCCCTCTACCTCTGTTCT, 2. Take AGTGACTCAGAGCATATGTTGACCCGAGTG: the binding signal (log2 normalized intensity) was 3.49. As to TCTTATCACCATCCCTGTTGCCTCATCTGA, the binding signal (log2 normalized intensity) worked out at 0.485. The same measure for CTCGGGGAGCTGTGGGCCTCACACCCTCTA: -1.37; for CATGGACTTTGAACCAAGATATGCTAACAT: 5.27.

Turning to GCTGACCTACATTCCACCCTCATTTGCTTG, the binding signal (log2 normalized intensity) turned out to be 0.0951. For the sequence AGCATCACCAGTGCAGCTGACCTACATTCC, the binding signal (log2 normalized intensity) was found to be 1.39. Turning to CAAGCCAGAAAGATGTTTGCCCCAAGATAA, the binding signal (log2 normalized intensity) is 2.44. In the case of GATAGTAAAATGGACTTTGTGGGCCAAAAG, the binding signal (log2 normalized intensity) is 3.36.

Turning to TCATACCACATGGATGGATTCAGATCCAGT, the binding signal (log2 normalized intensity) is -1.32. The same measure for GGAAAGAACAGGTCAAAGGTCAGTTTCTTT: 7.69. ACTCAGGCATTCTGACCTTTGTCTCCAGGC: the binding signal (log2 normalized intensity) was determined as 6.52.

CACACTCACAGAACACAGTGTTTGCTTTAG: the binding signal (log2 normalized intensity) is -0.807. For AGTCTGTTATCCCTAGGAAGGATAAGAGCA the value was -0.925; for TCTGATGCGGCTTCTCATACTACTGTACTT, 1.21; for GTGCACCCTGGTCTCTCTTACCCAACCAAA, 2.74. AAGGGTAATCTGCTTTTCTCGAAGCCAACT: the binding signal (log2 normalized intensity) was -1.25. Consider TACCTTTCTTATCATAAGTAAAAAGAGAGA, for which the binding signal (log2 normalized intensity) was determined as 0.54. For the sequence TAACAATGCTGATGGGGACCACAGAGAACT, the binding signal (log2 normalized intensity) was -1.16. The same measure for GCCTCCCCCTCTTTATCTCCTGGAATCCAA: 2.15; for GTTCTATCGGAGAACGTTCCAAACCTACAC: -1.31. The same measure for CACCCAGGCTGAAGTCCAGTAGCTCAATCA: -1.13. Take TTTGGCCCCCAGAGCCCCGTGTCTCCCTAC: the binding signal (log2 normalized intensity) was 4.89. For AGGTGAAACTCCAGGCTCCAAGGGTATAGG, the binding signal (log2 normalized intensity) was -1.32. Take ATGGGGAGCAGTGGGAGGTGAGGAAAACGG: the binding signal (log2 normalized intensity) is -1.24.

Consider AGCTGGCCTCACTAAGTCCTGCTTAGAGCA, for which the binding signal (log2 normalized intensity) is -1.31.

In the case of ACGTCTAGAGCTGTCCAGCAGACAATGGGA, the binding signal (log2 normalized intensity) is -1.25. The same measure for AAGGCACAATCAGGGCTAAAGTCAGGGGCA: -1.44.

Consider GTCCAAAGGTAAAAACTGGCTCTTATTTTT, for which the binding signal (log2 normalized intensity) was 0.401.

With AGGCCGGAGGTCTGGAATGTGGAGAATGGC, the binding signal (log2 normalized intensity) is -1.25.

As for TCTCTCCTGGTTTGGGGCCTAAATGCTTCT, the binding signal (log2 normalized intensity) was -0.527.

With ATTTGTGATCTGGCACAAATTCTAGATTCA, the binding signal (log2 normalized intensity) is -1.33. For AAACACCTAGAGTTACAGTCACTCCCTATC the value was -0.853; for CAGTCGATCTTTGACCGCTGCCTCCCACCC, 4.31; for TTTGAAAGAAAGAGACCTTTACCCTGACCT, 4.47. Take TTCATTAAAAAAAAAAAAAAATACTCCTAT: the binding signal (log2 normalized intensity) is -1.21. Turning to AACCTGTTGGGTCAGGCTGCTCAGCTGCCT, the binding signal (log2 normalized intensity) is -1.28. For CCAGCCTGGCCTCTAGAGTGGTTGCCTGTG the value was -1.39; for TAGTCAGATTCCTCTGAGTCCTCTTCCCAA, -1.35; for TATGGACAATGAAATTCAGGCTGAGGTGCT, -1.4.

As to CAAATGATCAAAGGTCGGTTTTAGGACAAC, the binding signal (log2 normalized intensity) was 4.95.

Take CAGATAATTACCTGGACTCTAGAGCCAGAC: the binding signal (log2 normalized intensity) was 1.75. Take CTTTGCCCCAGAGGAAGACATCATATTTGT: the binding signal (log2 normalized intensity) is 0.87. On to TTTGAAGAAGACAAAACAGCGTACTGTGCT, for which the binding signal (log2 normalized intensity) is -1.42. The same measure for CACACCGAGCACGGTGCAGGGAGGATATCC: -1.48; for GGCAGCTTCAGGATGAAGGCTGCTGCCTGA: -1.39; for TCCTCCAGCCCTCCTCTCTGTAGTCCTCAG: 0.507. For GTAGGAGGAGATTGATGGTTTTATCAGCTG the value was -1.21; for AGGTCACTCTTGCTAAGCTTTAGCAAAGAA, -1.32.

These data come from PMC10726135.
